# Some of the results follow.
# Test system: T1, C. trachomatis L2/434/Bu expressing GFP (CTL2-GFP)
# T1 construct: L2/434/Bu GFP intracellular growth in HeLa cells
# Parameters: species or system HeLa; C. trachomatis total inclusion area by high-content imaging, normalised to DMSO
# Details: total inclusion area; 28.5 h, 10 µM; inhibitor
# Summary of the method: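 Imaging read-out: GFP inclusions and Hoechst nuclei captured by high-content imaging after fixation. Inclusion area/number = chlamydial growth; nuclei count = host cell viability. MIC calculated per earlier method.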
row,SMILES,% of control remaining
1,CCCCC(=O)NC(Nc1cc(C)ccn1)(C(F)(F)F)C(F)(F)F [CBK009331],92.6744
2,C=C(C)Cn1nc(C)c(CN(C)CCN2CCCCC2)c1C [CBK282483],127.201
3,CN(C)c1ccc(C(=O)N2CC[C@@H](CC(=O)O)[C@@H](CC3=NCCc4ccccc43)C2)cc1 [CBK289159],113.752
4,O=C(c1sc2ccccc2c1Cl)N1CCN(CCN2C(=O)c3cccc4cccc(c34)C2=O)CC1 [CBK262557],93.8808
5,CCOC(=O)c1cnn(C2CCCN(Cc3cnnn3C)C2)c1 (centres unmarked) [CBK305122],84.3938
6,CN(C)S(=O)(=O)NCCc1ccc(S(N)(=O)=O)cc1 [CBK022388],67.9017
7,CN1CCCN(Cc2ccc3c(c2)c(=O)c(C(=O)NCc2ccc(Cl)cc2)cn3C)CC1 [CBK018019],85.6476
8,CC(=O)N1CCC(Cn2nc(-c3ccccc3)ccc2=O)CC1 [CBK282405],66.0554
9,Cc1cc(C(=O)N2CCC(c3nnc(CN(C)C)n3C)CC2)ccc1F [CBK306748],69.7336
10,FC(F)(F)Oc1ccc(-c2c[nH]c([C@@H]3COCCN3Cc3c[nH]cn3)n2)cc1 [CBK289303],75.7121
11,CCOC(=O)CN1C(=O)S/C(=C/c2cc(Cl)c(OCC(=O)O)c(Br)c2)C1=O [CBK264614],125.295
12,NC(=O)CN1CC2(CCN(CCS(=O)(=O)c3ccccc3)CC2)c2ccccc21 [CBK126786],93.715
13,CN1CCN(C(=O)Cc2csc(-c3ccc(Cl)cc3)n2)CC1 [CBK107301],86.4287
14,COc1ccc(C(=O)N2CCC3(CCN(CCN4CCCCC4)C3)C2)cc1OC (centres unmarked) [CBK137113T],113.299
15,CC(C)(C)c1ccc(C(=O)Nc2cnn(CCCC(=O)O)c2)cc1 [CBK269929],110.351
16,COc1cc(C)c(Nc2cccc(-c3ccc(O)cc3)n2)cc1OC [CBK037608],81.3844
17,COCCNS(=O)(=O)c1ccc(Br)c(C(=O)N(C)Cc2cnn(C)c2)c1 [CBK304795],53.3427
18,N#Cc1cn(Cc2ccco2)c(=O)[nH]c1=O [CBK010407],99.8401
19,COC(=O)C1CCN(C(=O)c2ccc(Oc3cccc(Br)c3)nc2)CC1 [CBK304235],37.4699
20,CN1C[C@@H](NC(=O)NCc2ccccc2)C[C@H]1c1nc(-c2cncnc2)no1 [CBK288878],110.687
21,O=C1N=C(NC2C3CC4CC(C3)CC2C4)OC12CCCC2 (centres unmarked) [CBK113576],86.8022
22,NC(=O)c1cccc(-n2ncc(-c3cccnc3)n2)c1 [CBK112806],90.8708
23,CC(=O)NC(c1ccccn1)C1CCCN(C(=O)C(C)(C)C)C1 (centres unmarked) [CBK285101],85.3919
24,c1ccc(-c2oc3ncn4nc(COc5cccc6ccccc56)nc4c3c2-c2ccccc2)cc1 [CBK262898],121.017
25,c1ccc(-c2cc3nccc(-c4ccccc4)n3n2)cc1 [CBK287871],97.2647

row,SMILES,% of control remaining
1,O=C(OCCCc1cccnc1)c1cc(=O)[nH]c2ccccc12 [CBK295631],131.409
2,c1cc(Sc2nccnc2N2CCCC2)ccn1 [CBK093807],91.2274
3,CN(Cc1ccc(-c2ccc(S(C)(=O)=O)cc2)nc1)C1CCN(C(=O)CC(F)(F)F)CC1 [CBK164098T],80.6668
4,O=c1[nH]c2ncc(-c3cccc4ccccc34)nc2n1Cc1cccnc1 [CBK064274],83.0993
5,O=C(c1ccco1)N1CCN(c2cncc(-c3cccs3)n2)CC1 [CBK065518],123.145
6,CC(C)c1cc(C(=O)NC(c2ccccc2)c2ccnn2C)n(C)n1 (centres unmarked) [CBK282535],116.215
7,O=C(O)CCc1ccc(-c2cccs2)n1CCc1ccccc1 [CBK265983],75.3637
8,Cc1nc2ccc(C(=O)N(C)CCN(C)C)cn2c1N(C)C(=O)c1cccs1 [CBK146528],99.6016
9,CCN1CCN(C(=O)CCn2c(C(F)F)cc3cccnc32)CC1 [CBK285026],88.441
10,Cc1noc2nc(C3CCN(C(=O)C4CC4C)CC3)cc(C(F)F)c12 (centres unmarked) [CBK285307],74.8059
11,CC1CCCCN1C(=O)Cn1ncn2c(cc3ccsc32)c1=O (centres unmarked) [CBK284201],60.4182
12,CC1CCc2nn(CCNC(=O)Cc3ccccc3F)c(=O)cc2C1 (centres unmarked) [CBK284482],109.871
13,O=[N+]([O-])c1ccc(N2CCN(S(=O)(=O)c3ccc4ccccc4c3)CC2)c(C(F)(F)F)c1 [CBK264827],95.0081
14,Cc1cc(C)n(-c2ccc(N3CCC4(CC3)OCCO4)nn2)n1 [CBK305255],24.3445
15,COc1cccc(C(=O)Nc2cnn(CCCC(=O)O)c2)c1 [CBK269879],80.332
16,COC(=O)c1ccc(N2CCOCC2)c(NC(=O)COc2ccccc2)c1 [CBK270222],111.946
17,O=[N+]([O-])c1ccc(CN2CCC(Oc3nccnc3OCC3COc4ccccc4O3)CC2)cc1 (centres unmarked) [CBK082984T],79.0657
18,CCNC(=O)c1cnc(-c2ccc(F)cc2)c(-c2ccncc2)c1 [CBK037477],146.266
19,CC(SCc1ccccc1)C(=O)NC(C)c1ccccc1 (centres unmarked) [CBK263772],87.8701
20,O=C(Nc1ccc(Cl)c(C(=O)O)c1)c1cccc(-n2cnnc2)c1 [CBK270016],101.371
21,CN1CCN(C(=O)c2[nH]c3ccccc3c2NS(=O)(=O)c2cc(F)c(Br)cc2F)CC1 [CBK050051],98.4392
22,Cc1ccc(NC(=O)CSc2nc3[nH]ncc3c(=O)[nH]2)cc1 [CBK287675],78.1202
23,O=C(COc1ccc(-c2ccccc2)cc1)N1CCN(S(=O)(=O)c2ccc([N+](=O)[O-])cc2)CC1 [CBK264297],123.391
24,O=C(O)CC1CCC2(CC1)Cc1ccccc1C2 [CBK012397],104.806
25,Cc1ccccc1-c1noc(CSc2nnc(-c3ccncc3)n2-c2ccc(F)cc2)n1 [CBK269089],94.1764

# — article PMC12040169 (PLOS Biology, 2025)
